# Data from PubChem BioAssay AID1347428 (National Center for Advancing Translational Sciences (NCATS), 2020).
# The campaign covered roughly 91,000 compounds. About 290 (0.32%) were called active. This list was built around the results that the source calls inconclusive (neither active nor inactive); the mix of calls is not that of the screen. Calls follow the shape of the dose curve; as a rule, active = well fitted inhibition curve with a large enough effect; inconclusive = small, poorly fitted or top-dose-only effect; inactive = no such curve, though single readings can be large or run the other way. Potencies beside an inconclusive call are fits to weak or partial responses and may not hold up.
# Biological target: Single-stranded DNA cytosine deaminase (Homo sapiens) (UniProt Q9GZX7)
# Assay: Primary qHTS assay for inhibitors of Activation Induced Cytidine Deaminase (AID): AID signal; also: nearly all actives have a fitted effect of over 25% in size
# Conditions: AID deamination FRET fluorescence, UDG-coupled, 4 h; series mostly up to 115 µM
# Potency is read from the fitted curve at half-maximal effect; tags tell the direction and shape of the fitted curve.
# Chain of UniProt Q9GZX7 (Q9GZX7 whole entry, looked up): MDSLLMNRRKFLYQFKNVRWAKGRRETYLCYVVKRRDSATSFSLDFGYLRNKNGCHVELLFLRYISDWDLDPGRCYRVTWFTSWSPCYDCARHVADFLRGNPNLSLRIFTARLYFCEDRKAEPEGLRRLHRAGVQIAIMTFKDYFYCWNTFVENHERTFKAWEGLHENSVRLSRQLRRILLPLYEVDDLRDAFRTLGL
row,Compound,Potency
1,O=C(NCCc1c[nH]c2ccc(Cl)cc12)c1ccncc1,inactive
2,COc1ccccc1CCNC(=O)Cn1ccc2cc(S(=O)(=O)N3CCCCC3)ccc21,"inconclusive: 39.8 µM [inhibitor, single point]"
3,CN(C(=O)CSc1nc(N2CCOCC2)c2c(c1C#N)CCCC2)c1ccccc1,"inconclusive: 50.1 µM [inhibitor, partial curve]"
4,Cc1ccc(-n2cnc3cc(C(=O)NCCC4=CCCCC4)ccc32)c(C)c1,"inconclusive: 15.8 µM [inhibitor, full curve, poor fit]"
5,COc1ccc(C)cc1NC(c1nnc(-c2ccccc2)o1)c1ccc(F)cc1Cl (stereo not drawn),"inconclusive: 14.1 µM [inhibitor, full curve, poor fit]"
6,COc1cc(C(=O)/C=C/c2cccc(F)c2)ccc1S(C)(=O)=O,inactive
7,Cc1c(C(=O)Nc2ccc(F)cc2F)oc2c1-c1nn(Cc3c(F)cccc3Cl)cc1CC2,"inconclusive: 79.4 µM [inhibitor, partial curve, poor fit]"
8,CCCCNC(=O)NC(=O)CN(C)CCCc1ccccc1,inactive
9,Cc1nc(-c2ccc(S(=O)(=O)N3CCN(c4cccc(C(F)(F)F)c4)CC3)cc2)co1,"inconclusive: 15.8 µM [inhibitor, full curve, poor fit]"
10,O=C(CSc1nc2ccccc2c(=O)n1-c1ccc(F)cc1F)NC(=O)NC1CCCC1,inactive
11,Cc1ccc(CN(Cc2ccco2)C(=O)c2ccccc2Br)o1,"inconclusive: 79.4 µM [inhibitor, partial curve, poor fit]"
12,Cc1ccc(S(=O)(=O)c2nnn3c2nc(NC2CCCCCC2)c2sccc23)cc1C,"inconclusive: 14.1 µM [inhibitor, full curve, poor fit]"
13,CC(NC(=O)CSc1ccc2c(c1)OCCCO2)c1ccc2ccccc2c1 (stereo not drawn),inactive
14,O=S(=O)(c1ccc2nc(N3CCN(c4ccccc4)CC3)ccc2c1)N1CCCC1,inactive
15,CC(Sc1nnc2c(Cl)cc(C(F)(F)F)cn12)C(=O)c1cccc(Cl)c1 (stereo not drawn),inactive
16,CCc1ccccc1NC(=O)Cn1nnc2sc3c(c2c1=O)CCC(C(C)(C)C)C3 (stereo not drawn),"inconclusive: 39.8 µM [inhibitor, partial curve, poor fit]"
17,O=C(c1noc2c1CCCCC2)N1CCN(c2cccc(Cl)c2)CC1,"inconclusive: 79.4 µM [inhibitor, partial curve, poor fit]"
18,Cc1ccc(C(=O)c2cn(Cc3ccccc3F)c3cc4c(cc3c2=O)OCCO4)cc1,"inconclusive: 28.2 µM [inhibitor, full curve]"
